# Assay results from paper PMC6555819.
# The other results are listed elsewhere or left out. For part of these data: At the low end of the ranking the order means little.
# Target: T1, RARa (Homo sapiens) (UniProt P10276)
# T1 sequence: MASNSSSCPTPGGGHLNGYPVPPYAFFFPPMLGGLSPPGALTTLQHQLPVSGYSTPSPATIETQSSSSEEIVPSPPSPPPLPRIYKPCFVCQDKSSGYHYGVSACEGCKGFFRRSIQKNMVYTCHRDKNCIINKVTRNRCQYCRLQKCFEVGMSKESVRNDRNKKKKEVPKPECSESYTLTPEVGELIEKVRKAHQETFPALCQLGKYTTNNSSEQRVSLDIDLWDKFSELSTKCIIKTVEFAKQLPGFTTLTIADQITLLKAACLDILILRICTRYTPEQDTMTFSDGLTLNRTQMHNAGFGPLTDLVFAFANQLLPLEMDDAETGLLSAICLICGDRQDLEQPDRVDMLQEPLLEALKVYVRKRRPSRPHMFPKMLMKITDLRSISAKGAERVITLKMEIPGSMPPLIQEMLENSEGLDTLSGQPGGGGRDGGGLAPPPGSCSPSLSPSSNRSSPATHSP
# Details: 270 nM, no RXRa, PBS pH 7.4, 2% milk, 0.02% Triton X-100, 1 mM DTT, BSA, 0.4 mg/ml salmon testes DNA; double strand, one strand shown
row,Sequence,binding signal (PBM z-score against 500 random probes)
1,GCCCAAGATCTTGCCACTGCACTCCAGCCTGGATGAGCGATTGACAGCGTAGAATGAAGG,-0.3
2,GCCTCTTTGCCTGCTGCCATCCATGTAAGATGTGAGGCGATTGACAGCGTAGAATGAAGG,0.5
3,GCTGCTGACTTGCTGGTTAGAGGGAACACATTCCCAGCGATTGACAGCGTAGAATGAAGG,-0.38
4,GCGCAGTGGGTCACTTGAGACCAGCCTGGGCAACGCGCGATTGACAGCGTAGAATGAAGG,-1.15
5,GCACAGCAAAGAGGCCAGCATGGCTAGAGCAGATCAGCGATTGACAGCGTAGAATGAAGG,-1.04
6,GCTGTGTCACCATGAGCAATCCAACCAGGCATCCCAGCGATTGACAGCGTAGAATGAAGG,-0.02
7,GCTGGTGGAGCTTATCTTGAAGTAGTTTCCTAAGAGGCGATTGACAGCGTAGAATGAAGG,0.31
8,GCGGAGGCTGAGGCAGGAGAATCGCTTGAACCTGGGGCGATTGACAGCGTAGAATGAAGG,-0.98
9,GCGAAGGAGTTCTTATCTGGCCAGTTCCCATCCTGTGCGATTGACAGCGTAGAATGAAGG,-0.54

# Tested on: RARa:RXRa
# Details: 270 nM : 90 nM RXRa, PBS pH 7.4, 2% milk, 0.02% Triton X-100, 1 mM DTT, BSA, 0.4 mg/ml salmon testes DNA; double strand, one strand shown
row,Sequence,binding signal (PBM z-score against 500 random probes)
1,GCACTATCAGTTGACTTAGGGCAACCGATACGACGCGCGATTGACAGCGTAGAATGAAGG,0.47
2,GCCCTGCTCGGTCAATGGTCAGCTAAAGCAGCTCGCGCGATTGACAGCGTAGAATGAAGG,0.25
3,GCTCTGCTAGGTCAGTTGGTCAGCGAACGAGCTGCCGCGATTGACAGCGTAGAATGAAGG,0.46
4,GCTCTCGGAGGACACGAAGGTCTGAGCTTTCCAGAGGCGATTGACAGCGTAGAATGAAGG,0.11
5,GCAGTCAATGTTCAGGACGAGGTAACGTAAAGCACGGCGATTGACAGCGTAGAATGAAGG,0.31
6,GCATCTCTAGGTAAGGCTCAGTTCAGTGAAGAACGCGCGATTGACAGCGTAGAATGAAGG,0.5
7,GCACTAGCAGGCCAAGTTTCGGTCACTCAAACAAAGGCGATTGACAGCGTAGAATGAAGG,0.02
8,GCCCAGACAGGTGAGAGGGTAACTCAGCCTCGATTAGCGATTGACAGCGTAGAATGAAGG,0.44
9,GCGCTCGGAGGACAAGTTCAGAGCTTTGTCCGTAGAGCGATTGACAGCGTAGAATGAAGG,0.49
10,GCGGAACGAGGGCAAGTTGAGAGCAGAGTTTGATGGGCGATTGACAGCGTAGAATGAAGG,0.48
11,GCCCTATTAGTTGACCATAGGGGCAACCGAAGCTCGGCGATTGACAGCGTAGAATGAAGG,0.45
12,GCAGAATGTGGTTATACGTAGATCAGGGAAGAAAGTGCGATTGACAGCGTAGAATGAAGG,0.28
13,GCGCTCGCAGGCCATTTGGGTCACTCAATGACGGGCGCGATTGACAGCGTAGAATGAAGG,0.49
14,GCCGAACTCGGTCATTGACAGGACAGTGAATAGTAAGCGATTGACAGCGTAGAATGAAGG,0.44
15,GCTCTTGTAGATCAGCAGGTTAACAAAGCTGGCCAAGCGATTGACAGCGTAGAATGAAGG,0.49
16,GCTCTATGAGTTGATTAGGGCAACCGAAACAGCGGAGCGATTGACAGCGTAGAATGAAGG,0.49
17,GCTCGAGTAGGTTAGCCGGGGCATTCAGCCAACATAGCGATTGACAGCGTAGAATGAAGG,0.48
18,GCCCTCGGAGGACAACAGGAGTTCAGAGCTGCCAGAGCGATTGACAGCGTAGAATGAAGG,0.37
19,GCGTACCAAGGTGAGTAGGTCGTTGATGAGTAGGCGGCGATTGACAGCGTAGAATGAAGG,0.39
20,GCCGAACGAGGGCATGAGTTGATAGCCAATGCCGATGCGATTGACAGCGTAGAATGAAGG,0.5
21,GCGCTAGCAAGCCATTTGGGTCACTCAATGACGGGCGCGATTGACAGCGTAGAATGAAGG,0.48
22,GCTGAATGAGGGTATAAGATCAGGGAACGTTGCAAAGCGATTGACAGCGTAGAATGAAGG,0.23
23,GCCCGACTGGGGCAAGTTTACCATAACGCACAGCCAGCGATTGACAGCGTAGAATGAAGG,0.04
24,GCTAGCCTAGGGCAGATCGGGCCAGTATACGCTATAGCGATTGACAGCGTAGAATGAAGG,0.41
25,GCTCTTGTAGATCGAGCAGGTTAAGAAAGCCTGAGTGCGATTGACAGCGTAGAATGAAGG,0.5
26,GCTCGAGTAGGTTACGGGCGCATTCAGGGATGAAGAGCGATTGACAGCGTAGAATGAAGG,0.35
27,GCTCTATAAGTTGATTAGGGCAACCGAAACAGCGGAGCGATTGACAGCGTAGAATGAAGG,0.49
28,GCTCTAGCAGGCCAGAGGTTCACTCAAGAGGTACGGGCGATTGACAGCGTAGAATGAAGG,0.32
29,GCAGTCAAAGTGCACTAGGTAACGTAAGATTCAGCTGCGATTGACAGCGTAGAATGAAGG,0.32
30,GCTCGAGTAGGTTAGTCGGGGCATTAAGCCAACATAGCGATTGACAGCGTAGAATGAAGG,0.47
